Test system: benzodiazepine-resistant SE
Assay: Benzodiazepine-resistant SE in experimental animals

Structure (SMILES): CC(=O)[C@H]1CC[C@H]2[C@@H]3CC[C@H]4C[C@](C)(O)CC[C@]4(C)[C@H]3CC[C@]12C [ganaxolone, 3α-hydroxy-3β-methyl-5α-pregnan-20-one]
- effect on benzodiazepine-resistant SE (block of convulsions, reduction of EEG seizure activity, increased survival): immediate and prolonged cessation

From patent US20240245709A1, “[…] USE IN TREATMENT OF E[…] EPILEPTICUS” (MARINUS PHARMACEUTICALS, INC., priority 2021, published 2024)
